About 14,000 (4.5%) of roughly 310,000 compounds showed an effect of 50% or more. The effect is printed as a negative number. Some of the results follow.
target: human ether-à-go-go-related gene (hERG) potassium channel (human, UniProt Q12809); assay: primary screen, population patch clamp on CHO cells stably expressing hERG
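Also: peak tail current of the secondary pulse compared with the same well before compound.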

human ether-à-go-go-related gene (hERG) potassium channel, sequence (Q12809 whole entry, looked up): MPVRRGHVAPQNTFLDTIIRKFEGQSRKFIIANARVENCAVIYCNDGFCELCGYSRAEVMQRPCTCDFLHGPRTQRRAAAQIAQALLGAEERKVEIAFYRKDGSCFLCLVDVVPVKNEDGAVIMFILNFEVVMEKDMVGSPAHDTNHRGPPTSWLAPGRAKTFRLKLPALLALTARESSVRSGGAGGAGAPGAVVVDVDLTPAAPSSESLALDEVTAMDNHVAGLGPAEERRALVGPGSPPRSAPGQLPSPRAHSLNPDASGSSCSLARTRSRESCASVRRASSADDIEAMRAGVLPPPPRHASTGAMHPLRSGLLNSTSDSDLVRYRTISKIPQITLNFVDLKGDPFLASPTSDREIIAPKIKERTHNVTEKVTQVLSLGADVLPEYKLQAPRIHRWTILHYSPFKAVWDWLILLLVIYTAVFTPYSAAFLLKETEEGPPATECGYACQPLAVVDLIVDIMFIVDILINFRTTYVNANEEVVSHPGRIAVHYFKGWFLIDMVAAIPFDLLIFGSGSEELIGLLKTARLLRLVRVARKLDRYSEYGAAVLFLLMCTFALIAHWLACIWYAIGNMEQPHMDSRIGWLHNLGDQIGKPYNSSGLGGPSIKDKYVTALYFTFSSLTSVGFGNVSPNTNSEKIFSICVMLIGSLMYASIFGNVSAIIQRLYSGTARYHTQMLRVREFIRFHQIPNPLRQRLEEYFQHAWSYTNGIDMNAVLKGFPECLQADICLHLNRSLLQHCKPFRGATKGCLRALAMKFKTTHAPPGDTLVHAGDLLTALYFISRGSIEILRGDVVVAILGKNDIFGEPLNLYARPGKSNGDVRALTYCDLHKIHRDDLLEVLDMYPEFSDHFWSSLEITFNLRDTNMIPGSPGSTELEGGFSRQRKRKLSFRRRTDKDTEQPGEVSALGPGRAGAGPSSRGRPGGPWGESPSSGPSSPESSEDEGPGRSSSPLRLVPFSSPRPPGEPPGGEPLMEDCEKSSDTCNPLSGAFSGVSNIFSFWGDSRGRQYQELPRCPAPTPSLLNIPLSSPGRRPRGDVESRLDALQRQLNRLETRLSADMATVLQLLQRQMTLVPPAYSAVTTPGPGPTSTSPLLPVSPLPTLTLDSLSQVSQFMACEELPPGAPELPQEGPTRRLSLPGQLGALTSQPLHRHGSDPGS

First: Cc1ccc2oc(=O)n(CCOc3ccccc3Cl)c2c1
Second: Cc1cc(O)c(/C=N/Nc2ccccc2Cl)c(=O)o1
The “hERG current change (%, negative = inhibition) at 10uM” value of the first is lower: -7.26% for the first, 3.13% for the second.

First: CCCCCC(=O)N1CC2(CC(c3cccc(NC(=O)c4ccccc4)c3)=NO2)C[C@@H]1C(N)=O (stereo partly drawn)
Second: NC(=O)/C(=C/c1cccnc1)NC(=O)c1ccccc1
The “hERG current change (%, negative = inhibition) at 10uM” value of the first is lower: -54.6% for the first, 12.8% for the second.

Going from `Cc1ccc(-c2nc3ncccc3o2)cc1NC(=O)c1ccco1` to `C/C(=N\Nc1nc(C)cc(-c2ccccc2)n1)c1ccc(O)cc1`, the “hERG current change (%, negative = inhibition) at 10uM” value rises from -19.6% to 3.53%.

Compared with `CN(C)CCNC(=O)C(=O)NCC(c1ccc2c(c1)OCO2)N1CCN(c2ccc(F)cc2)CC1` (stereo not drawn), `O=C(Nc1ccc(N2CCOCC2)cc1)c1ccc2c(c1)OCO2` is higher in “hERG current change (%, negative = inhibition) at 10uM” value: -7.52% for the first, 14.3% for the second.

Compared with `O=C1CC(N(Cc2ccco2)C(=O)Nc2ccc(F)cc2)C(=O)N1c1ccc(F)cc1` (stereo not drawn), `Cc1ccc(NC(=O)COC(=O)c2ccc(S(=O)(=O)NCc3ccco3)cc2)cc1` is lower in “hERG current change (%, negative = inhibition) at 10uM” value: 4.84% for the first, -4.52% for the second.

First: CC(C)(C)NC(=O)CN(C(=O)C1CSC(=O)C1)c1ccc2c(c1)OCCO2 (stereo not drawn)
Second: O=C(c1ccc2c(c1)OCCCO2)c1cccs1
The “hERG current change (%, negative = inhibition) at 10uM” value of the first is higher: -0.328% for the first, -2.99% for the second.

Going from `Cn1c(SCC(=O)N2CCOCC2)nc2cccnc21` to `COc1ccc(N2CCOCC2)c(NC(=O)c2cccc3ccccc23)c1`, the “hERG current change (%, negative = inhibition) at 10uM” value falls from -2.29% to -8.88%.

First: COc1ccc(NC(=S)N(Cc2ccc(C)cc2)Cc2ccccn2)cc1
Second: COc1ccc(CN(CC(=O)NCc2ccco2)C(=O)CCC(=O)Nc2nccs2)cc1
The “hERG current change (%, negative = inhibition) at 10uM” value of the first is lower: -50.5% for the first, -25.3% for the second.

First: Nc1c(N(CCO)C(=O)C2CCCCC2)c(=O)[nH]c(=O)n1Cc1ccccc1
Second: O=c1[nH]c2ccc(S(=O)(=O)N3CCN(Cc4ccccc4)CC3)cc2[nH]c1=O
The “hERG current change (%, negative = inhibition) at 10uM” value of the first is lower: -16.6% for the first, -1.75% for the second.

First: O=c1c2ccccc2cnn1-c1ccc(Cl)nn1
Second: O=C(O)c1nn(CCSc2ccccc2F)c(=O)c2ccccc12
The “hERG current change (%, negative = inhibition) at 10uM” value of the first is higher: 14.7% for the first, 10.1% for the second.

Compared with `C=CCn1c(COc2cccc(C)c2)nnc1SC(C)C(=O)NC1CC1` (stereo not drawn), `Cc1cc(C)n(CC(=O)NC2CCCN(Cc3ccc(Cl)cc3)C2)n1` (stereo not drawn) is lower in “hERG current change (%, negative = inhibition) at 10uM” value: -8.3% for the first, -9.19% for the second.

Compared with `Cc1c(C(=O)N/N=C/c2ccc(O)cc2)sc(=S)n1C`, `Cc1ccc(N(CC(=O)N/N=C/c2ccc(OCC(N)=O)cc2)S(C)(=O)=O)cc1Cl` is higher in “hERG current change (%, negative = inhibition) at 10uM” value: 6.05% for the first, 27.8% for the second.

Compared with `COc1cc(CCN2C(=O)c3cccc4cccc(c34)C2=O)c(S(=O)(=O)N2CCCCCC2)cc1OC`, `O=C(Nc1nc(-c2cccs2)cs1)c1cccc(S(=O)(=O)N2CCCCCC2)c1` is higher in “hERG current change (%, negative = inhibition) at 10uM” value: 3.78% for the first, 15.1% for the second.

Going from `Cc1nn(C)c(C)c1S(=O)(=O)N1CCC(C(=O)NC2CCCCCC2)CC1` to `O=C(NCCOc1ccc(F)cc1)C1CCN(S(=O)(=O)c2ccccc2)CC1`, the “hERG current change (%, negative = inhibition) at 10uM” value falls from 2.21% to -21.1%.

Compared with `COc1cc(/C=C2\NC(=S)N(C)C2=O)ccc1OCc1ccccc1F`, `COc1ccc(/C=C2\CCc3ccccc3C2=O)cc1CN1CCOCC1` is lower in “hERG current change (%, negative = inhibition) at 10uM” value: 11% for the first, -33.6% for the second.

Going from `Cc1ccc(C(=O)/C=C\Nc2ccc(C)c(C)c2)cc1` to `Cc1ccc(C(=O)NCC(=O)NCc2cc(=O)n(C)c(=O)n2C)cc1`, the “hERG current change (%, negative = inhibition) at 10uM” value rises from -28.1% to 25.6%.

Compared with `COc1ccc(Cc2nc3ccc(C(=O)N4CCCC4)cc3o2)cc1`, `COc1ccc(CNC(=O)c2cc(-n3cnnc3)ccc2Cl)cc1` is lower in “hERG current change (%, negative = inhibition) at 10uM” value: -7.05% for the first, -18.4% for the second.

First: O=c1c2ccccc2nc(/C=C/c2c[nH]c3ccccc23)n1CCO
Second: O=C(NCCc1c[nH]c2ccccc12)c1ccc2[nH]c(=O)c(=O)[nH]c2c1
The “hERG current change (%, negative = inhibition) at 10uM” value of the first is lower: 15.4% for the first, 22% for the second.

First: CCO[C@@H]1OC(C(=O)N2CCOCC2)=C[C@H](C)[C@H]1CCCO
Second: CCOC(=O)C1CCN(C(=O)c2ccco2)CC1
The “hERG current change (%, negative = inhibition) at 10uM” value of the first is higher: 11.8% for the first, 3.87% for the second.

Compared with `OCCN1CCN(c2ncnc3nc[nH]c23)CC1`, `C=CCN1CCN(C(c2ccccc2)c2nnnn2CCC(C)C)CC1.Cl` (stereo not drawn) is lower in “hERG current change (%, negative = inhibition) at 10uM” value: 1.62% for the first, -20.5% for the second.

Going from `CCN(CC)S(=O)(=O)c1cc(C(=O)Nc2ccc(Cl)cn2)ccc1C` to `COc1ccc(Br)cc1S(=O)(=O)Nc1ncccc1C`, the “hERG current change (%, negative = inhibition) at 10uM” value rises from -41.9% to 26.2%.

Going from `CCOC(=O)Cn1ccc(-c2ccccc2)c(C#N)c1=O` to `CCOC(=O)COc1cc(Br)c(/C=N/Nc2ccccc2)cc1OC`, the “hERG current change (%, negative = inhibition) at 10uM” value falls from 18.9% to 1.43%.

First: Cn1nc([N+](=O)[O-])nc1Sc1nnc(-c2ccccc2)o1
Second: Cc1cc(C(=O)NCc2cccs2)n(-c2ccccc2)n1
The “hERG current change (%, negative = inhibition) at 10uM” value of the first is lower: -8.47% for the first, -7.89% for the second.

Going from `C=CCNC(=O)COc1ccccc1C#N` to `CCOc1ccccc1NC(=O)C1CC(=O)n2ncnc2N1` (stereo not drawn), the “hERG current change (%, negative = inhibition) at 10uM” value rises from -16% to -5.11%.

Compared with `CC(Sc1nc(-c2ccco2)nc2c1c(=O)n(C)c(=O)n2C)C(=O)O` (stereo not drawn), `Cc1ccc(N(C)C(=O)CN(C)S(=O)(=O)c2ccc3c(c2)n(C)c(=O)c(=O)n3C)cc1` is lower in “hERG current change (%, negative = inhibition) at 10uM” value: 10.3% for the first, -18.5% for the second.

First: Cc1ccccc1CN1CCC(n2nccc2NC(=O)CCOc2ccccc2)CC1
Second: c1ccc(CCc2ccccc2-c2nc(-c3ccccn3)no2)cc1
The “hERG current change (%, negative = inhibition) at 10uM” value of the first is lower: -44.9% for the first, 17.1% for the second.

Going from `Cn1ccnc1-c1nnn(-c2ccc(Cl)c(Cl)c2)n1` to `Cc1cc(NC(=O)CSc2nnnn2-c2ccc(F)cc2)no1`, the “hERG current change (%, negative = inhibition) at 10uM” value falls from 12.8% to 10.3%.

Compared with `O=C(NCCNC(=O)c1ccccc1O)c1ccccc1O`, `COc1ccc(NC(C)=O)cc1NC(C)C(=O)Nc1ccccc1F` (stereo not drawn) is lower in “hERG current change (%, negative = inhibition) at 10uM” value: 13.6% for the first, 7.35% for the second.

Compared with `CC(C)NC(=O)c1cccc(Br)c1`, `Cc1cc(NC(=O)Cc2ccsc2)ccc1Br` is higher in “hERG current change (%, negative = inhibition) at 10uM” value: -1.93% for the first, 15% for the second.

Going from `CCC1CCc2c(sc(NC(=O)c3cnccn3)c2C(N)=O)C1` (stereo not drawn) to `Cc1ccc2nc(-c3ccc(SCC(=O)Nc4nnc(C)s4)nc3)[nH]c2c1`, the “hERG current change (%, negative = inhibition) at 10uM” value falls from 18.5% to -16%.

Going from `COc1ccc(-n2ncc3c2CC(C)(C)CC3NC(=O)c2oc(C)cc2C)cc1` (stereo not drawn) to `COc1ccc([C@H]2CC(=O)C=C(c3ccc(CO)cc3)C2)cc1`, the “hERG current change (%, negative = inhibition) at 10uM” value falls from 15.2% to -4.98%.

Compared with `O=C(Nc1nnc(-c2ccccc2SCc2ccccc2F)s1)Nc1ccccc1F`, `O=C(Nc1ccc2c(c1)OCO2)Nc1ccccc1F` is lower in “hERG current change (%, negative = inhibition) at 10uM” value: 14.1% for the first, 5.17% for the second.

Compared with `COc1ccccc1CNC(=O)C1CCC(CNS(=O)(=O)c2ccc(F)cc2)CC1` (stereo not drawn), `CCOc1cccc2sc(=NC(=O)CCS(=O)(=O)c3ccc(F)cc3)n(C)c12` is lower in “hERG current change (%, negative = inhibition) at 10uM” value: -8.17% for the first, -29.3% for the second.

First: Cc1cc(C)cc(Nc2ncc3c(n2)CCCC3=O)c1
Second: O=C(c1cc(-c2ccc3c(c2)OCO3)on1)N1CCCCC1
The “hERG current change (%, negative = inhibition) at 10uM” value of the first is higher: -2.43% for the first, -3.9% for the second.

First: Cc1ccc(S(=O)(=O)N2CCN(C(=O)NCc3ccc(C(=O)O)cc3)CC2)cc1
Second: O=C(CN1CCN(C(=O)c2c(F)cccc2F)CC1)Nc1ccccc1C(F)(F)F
The “hERG current change (%, negative = inhibition) at 10uM” value of the first is higher: -13% for the first, -20.9% for the second.

First: CN(Cc1ccco1)C(=O)C(Cc1ccccc1)NS(=O)(=O)c1ccc2c(c1)CCC(=O)N2 (stereo not drawn)
Second: O=C(c1ccccc1)c1coc2c1C(=O)c1ccccc1C2=O
The “hERG current change (%, negative = inhibition) at 10uM” value of the first is lower: -37.5% for the first, 9.83% for the second.

Compared with `CCCCOCCCN1C(C)=CC(=C2C(=O)NC(=S)NC2=O)C=C1C`, `CC1(C)c2[nH]c3ccccc3c2C[C@H]2C(=O)N(CCCCCO)CC(=O)N21` is higher in “hERG current change (%, negative = inhibition) at 10uM” value: -4.13% for the first, 16.5% for the second.

Compared with `CC(C)c1ccc(-c2nc3ccccc3s2)cc1`, `COC(=O)C(C)Oc1ccc(Oc2nc(Cl)ccc2Cl)cc1` (stereo not drawn) is lower in “hERG current change (%, negative = inhibition) at 10uM” value: 25.5% for the first, -0.828% for the second.

First: CC1(C)NC(=O)N(CC(=O)OCC(=O)Nc2cccc(F)c2)C1=O
Second: CCOC(=O)COc1ccsc1C(=O)OC
The “hERG current change (%, negative = inhibition) at 10uM” value of the first is lower: -1.17% for the first, 3.59% for the second.

Going from `COC(=O)c1ccc(CSc2ncn[nH]2)o1` to `Cc1cc(SCc2cccc(C(F)(F)F)c2)nc(=O)[nH]1`, the “hERG current change (%, negative = inhibition) at 10uM” value rises from 7.07% to 11.3%.

First: CC(C)Oc1ccc(CNC(=O)CCC(=O)N2CC(C)Sc3ccccc32)cc1 (stereo not drawn)
Second: Cc1cc(NC(=O)CCC(=O)N(Cc2ccco2)C(C(=O)NC2CCCC2)c2ccc(F)cc2)no1 (stereo not drawn)
The “hERG current change (%, negative = inhibition) at 10uM” value of the first is lower: -33.5% for the first, -4.39% for the second.

First: Cn1c(=O)n(CC(=O)NCC2CCCO2)c(=O)c2c3c(sc21)COC(C)(C)C3 (stereo not drawn)
Second: COc1ccc(CN2CCNC(=O)C2CC(=O)N(C)CC2CCOCC2)c(F)c1 (stereo not drawn)
The “hERG current change (%, negative = inhibition) at 10uM” value of the first is lower: 5.08% for the first, 16.1% for the second.

Compared with `OCCC1CN(Cc2cccn2-c2cccnc2)CCN1Cc1ccc(F)cc1` (stereo not drawn), `CCN(C(=O)CSc1nc2ccccc2c(=O)n1-c1cccc(C)c1)C1CCS(=O)(=O)C1` (stereo not drawn) is higher in “hERG current change (%, negative = inhibition) at 10uM” value: -56.9% for the first, -14.9% for the second.

Going from `Br.CCN(CC)CCN1Cc2ccccc2C1=N` to `COc1cc(CCCN2C(=S)NC[C@@H]2CCCCN)cc(OC)c1OC`, the “hERG current change (%, negative = inhibition) at 10uM” value rises from -15% to 16%.

Compared with `CN(C)C=O.CNC(=O)CSc1nc2nc(C)cc(C)n2n1`, `COc1cc(/C=N/n2nnnc2N)ccc1O` is lower in “hERG current change (%, negative = inhibition) at 10uM” value: 0.176% for the first, -14.7% for the second.

— paper PMC4336329 (PLoS ONE, 2015)
